Source: PubChem BioAssay AID1466 (National Center for Advancing Translational Sciences (NCATS), 2008)
Hit rate of the full screen: of about 200,000 compounds, about 10 (0.005%) were called active. This list was built around the results that the source calls inconclusive (neither active nor inactive); the mix of calls is not that of the screen. Calls come from the whole dose curve; as a rule, active = well fitted inhibition curve with a large enough effect; inconclusive = small, poorly fitted or top-dose-only effect, or effect the other way, or another doubt; inactive = no such curve, though single readings can be large or run the other way. Potencies of inconclusive entries are left out as doubtful fits.

Each compound was assayed against Lysosomal alpha-glucosidase (Homo sapiens) (UniProt P10253) (assay: qHTS Assay for Inhibitors of Human alpha-Glucosidase as a Potential Chaperone Treatment of Pompe Disease). Conditions: purified human GAA, 4-MU-alpha-glucoside fluorescence; activity change, negative = inhibition: at 76.9 µM (top of the series) unless noted.
Procedure, shortened: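 Fluorescence at Ex 365/Em 440 nm from 4-methylumbelliferone reported enzyme activity after 20 min at room temperature. Reactions used 4 nM enzyme and 400 uM substrate at pH 5.0; curves fitted with the Hill equation.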
Potency is the fitted concentration of half-maximal effect; tags give direction and shape of the fitted curve.
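Throughout, for activity change, negative = inhibition: plate controls were uninhibited enzyme wells for no effect and no-enzyme background for full effect.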

SMILES | Potency | activity change, negative = inhibition
COC(=O)c1cc2c(=O)n3ccccc3nc2n(C)c1=N | inconclusive [activator, partial curve] | –
COc1cc2[nH]c3c(Cl)ncnc3c2cc1OC | inactive | –
NS(=O)(=O)c1ccc(-c2ccc(/C=C3\C(=O)Nc4cc(Cl)ccc43)o2)cc1 | inconclusive [inhibitor, full curve] | –
Cc1ccc(C)c(NC(=S)NCCN(C2CCCCC2)C2CCCC2)c1 | inconclusive [inhibitor, partial curve, poor fit] | –
O=C(CC1C(=O)NCCN1Cc1ccc(-c2ccccc2)cc1)NC1CCC1 (configuration not stated) | – | inconclusive: 9.06% [activator]
c1ccc2c(c1)ncn2CCCCOc1ccc2c(c1)CCC2 | inconclusive [inhibitor, single point] | –
COc1ccc(OC)c(NC(=O)c2cc(-c3cc(Cl)ccc3O)n[nH]2)c1 | inconclusive [inhibitor, single point] | –
COCCNC(=O)c1c[nH]c2ccc(S(=O)(=O)N3CCc4ccccc43)cc2c1=O | inconclusive [inhibitor, single point] | –
CN1CCN(C(=O)c2cc(Cl)cc(Cl)c2NC(=O)c2ccco2)CC1 | – | inconclusive: 16% [activator]
CCCCCOc1ccc(CSC2=NCCN2)cc1[N+](=O)[O-] | inconclusive [inhibitor, single point] | –
CC(=O)Nc1ccc(N(C)C)cc1[N+](=O)[O-] | – | inconclusive: -15.6% [inhibitor]
CCOc1ccccc1NC(=O)Nc1cc(C(=O)O)ccc1C | – | inconclusive: 19.6% [activator]
Cn1c(=O)c2c(nc(N/N=C/c3ccco3)n2C)n(C)c1=O | – | inconclusive: 18% [activator]
CSc1nc2cc(S(=O)(=O)N3CCOCC3)ccc2s1 | inconclusive [inhibitor, single point] | –
Cc1ccc(CC(CC(=O)O)C(=O)NC2CCCCC2)cc1 (configuration not stated) | – | inconclusive: -18.8% [inhibitor]
CC(=O)c1ccc(Oc2cc(C)nc(-n3nc(C)cc3C)n2)cc1 | inconclusive [inhibitor, single point] | –
CCOC(=O)Cn1c2ccc(C)cc2c2nc(C)sc21 | – | inconclusive: 6.49% [activator]
Cc1c(Cl)cccc1NC(=S)N(Cc1ccccc1)Cc1cccnc1 | inactive | –
CN1CCN(c2ccccc2NC(=O)c2cccc(OCc3ccccc3)c2)CC1 | inconclusive [inhibitor, single point] | –
CC(C)NC(=O)COC(=O)Cn1[nH]c(=O)c2ccccc2c1=O | inconclusive [inhibitor, partial curve] | –
O=C(O)c1ccc(Cn2cnc3sc4c(c3c2=O)CCCC4)cc1 | – | inconclusive: 19.1% [activator]
Cc1nc2c(c(=O)n1Cc1ccccc1Cl)c1nc3ccccc3nc1n2Cc1ccco1 | inconclusive [activator, single point] | –
C/C(=N\N1CCN(c2ccccc2)CC1)c1ccncc1 | – | inconclusive: 23.2% [activator]

SMILES | Potency | activity change, negative = inhibition
COc1ccc(C(=O)NC(=S)N2CCCc3ccccc32)cc1OC | inactive | –
CS(=O)(=O)NNC(=O)c1cc2cc3ccccc3nc2s1 | inactive | –
O=C(Cc1cccs1)N1CCN(S(=O)(=O)c2ccc(Br)cc2)CC1 | inactive | –
NC(=O)c1ccc(NCc2ccco2)c([N+](=O)[O-])c1 | inconclusive [inhibitor, partial curve] | –
C=CCn1c(COc2ccccc2-c2ccccc2)nnc1SCC(=O)NC(=O)NCc1ccco1 | inconclusive [inhibitor, full curve, poor fit] | –
CCC(=O)N1CCc2cc(Br)cc(S(=O)(=O)NCCN3CCCCC3C)c21 (configuration not stated) | – | inconclusive: -15.6% [inhibitor]
CCCCOC(=O)CSc1nc(N)c(C#N)c(-c2ccc(OC)cc2)c1C#N | inconclusive [inhibitor, partial curve, poor fit] | –
Cc1c(C(=O)N/N=C/c2ccc(-c3ccccc3[N+](=O)[O-])o2)sc(N)c1C#N | inconclusive [inhibitor, single point] | –
CC(C)(C)c1cc(=O)n2c(C#N)c(C#N)nc2[nH]1 | inconclusive [inhibitor, partial curve, poor fit] | –
COc1ccc(C(=O)OCC(=O)NCC2CCCCC2)cc1S(=O)(=O)N1CCCc2ccccc21 | inconclusive [inhibitor, single point] | –
COc1ccc(C(CC(=O)c2ccc(C)cc2)Nc2ccc([N+](=O)[O-])cc2)cc1 (configuration not stated) | inconclusive [inhibitor, single point] | –
COc1ccc([C@H](C)NC[C@H](O)c2ccc(O)c(NC=O)c2)cc1 | inactive | –
Cc1cc(C(=O)Nc2c(C)n(C)n(-c3ccccc3)c2=O)cs1 | – | inconclusive: -16.1% [inhibitor]
COc1ccc(/C=N/NC(=O)c2c(C)nc3ccccn23)cc1[N+](=O)[O-] | inconclusive [inhibitor, full curve, poor fit] | –
Cc1nnc(SCC(=O)Nc2sc3c(c2C(N)=O)CCCC3)[nH]c1=O | – | inconclusive: -16.7% [inhibitor]
CCOc1ccccc1NC(=O)C(Sc1nnnn1C)c1ccccc1 (configuration not stated) | inconclusive [activator, full curve, poor fit] | –
CCCCN(C(=O)CSc1cc(C)c2ccc(OC)cc2n1)c1c(N)n(Cc2ccccc2)c(=O)[nH]c1=O | inconclusive [inhibitor, single point] | –
O=C(CN1CCN(c2ccccc2O)CC1)NC(=O)NC1CCCC1 | inactive | –
CCN1CCN(C(=O)C2CCN(Cc3nc(-c4cccc(Cl)c4)oc3C)CC2)CC1 | inconclusive [inhibitor, single point] | –
CSc1ccc(C(=O)C2CCCN(C(=O)c3nn(C)c(=O)c4ccccc34)C2)cc1 (configuration not stated) | – | inconclusive: 21.1% [activator]
O=C1CCCC2=C1C1(CCCC1)N=C(Nc1nc3ccccc3s1)N2 | inconclusive [activator, single point] | –
O=C(Cn1cnc2ccccc2c1=O)N1CCOCC1 | – | inconclusive: -16.6% [inhibitor]
Cc1cc2ncn(/N=C/c3ccc4c(c3)OCO4)c2cc1C | inconclusive [activator, single point] | –

SMILES | Potency | activity change, negative = inhibition
C=CCn1c(NS(=O)(=O)c2ccccc2)c(S(=O)(=O)c2ccc(C)cc2)c2nc3ccccc3nc21 | inactive | –
O=C(CSc1nnc(CCCO)n1-c1ccccc1)Nc1nccs1 | inconclusive [inhibitor, partial curve, poor fit] | –
Cc1cc(NC(=O)CSc2ncn[nH]2)no1 | – | inconclusive: 18.5% [activator]
CC1CCCCC1NCc1cccc([N+](=O)[O-])c1 (configuration not stated) | – | inconclusive: 12.2% [activator]
COc1cc(CO)ccc1OCc1nnnn1-c1ccc(C)cc1 | inconclusive [inhibitor, single point] | –
c1ccc(CN2CCCC3(CCCN(Cc4nc(COc5ccccc5)no4)C3)C2)cc1 (configuration not stated) | inconclusive [inhibitor, single point] | –
Cc1c(NC(=O)C(C#N)=C2CCCCC2)c(=O)n(-c2ccccc2)n1C | inconclusive [inhibitor, full curve, poor fit] | –
Cc1cccc(NC(=O)C2CCN(S(=O)(=O)c3c(C)noc3/C=C/c3ccco3)CC2)n1 | inconclusive [inhibitor, single point] | –
CCOC(=O)CCc1c(C)c2ccc(O)cc2oc1=O | inconclusive [activator, partial curve] | –
Cc1ccc(NC(=S)Nc2cccc3cnccc23)cc1C | inactive | –
COCc1cc(C)n(CC(=O)Nc2c(C)cccc2C)c(=O)c1C#N | – | inconclusive: 14.6% [activator]
Cc1cccc(NC(=O)c2cc(-c3ccc(C)s3)nc3ccccc23)n1 | inconclusive [activator, single point] | –
Cc1ccc(-c2nc3cccnc3s2)cc1NS(=O)(=O)c1ccc2c(c1)OCCO2 | – | inconclusive: -20.7% [inhibitor]
CC(=O)N1CCN(S(=O)(=O)c2cccc(C(=O)Nc3nc4c(s3)CCCC4)c2)CC1 | inconclusive [inhibitor, single point] | –
CCN(CC)S(=O)(=O)c1ccc2c(c1)nc(CCC(=O)Nc1cccc(C(F)(F)F)c1)n2CC | inconclusive [inhibitor, partial curve] | –
CCN(CC)CC#CCC(OC)(c1ccccc1)c1ccccc1 | – | inconclusive: 14.1% [activator]
Nc1nc(N)c2nc(-c3ccccc3)c(N)nc2n1 | inconclusive [activator, partial curve] | –
O=C(NCc1ccco1)c1cc(NS(=O)(=O)c2cccc([N+](=O)[O-])c2)ccc1O | inconclusive [inhibitor, partial curve, poor fit] | –
CC1CCN(S(=O)(=O)c2ccc3c(c2)C(=NO)c2cc(S(=O)(=O)N4CCC(C)CC4)ccc2-3)CC1 | – | inconclusive: 15.6% [activator]
FC(F)(F)c1cccc(-c2nc(COc3ccc(Cl)cc3Cl)no2)c1 | inactive | –
CCS(=O)(=O)N1CCC(c2nc(-c3ccc(C(F)(F)F)cc3)no2)CC1 | inconclusive [inhibitor, single point] | –
